# Among all 320,000 compounds or so, about 9,100 (2.8%) were called active. Inconclusive results, whose numbers are uncertain, are shown with a selection of clear calls. Calls follow the shape of the dose curve; as a rule, active = well fitted activation curve with a large enough effect; inconclusive = small, poorly fitted or top-dose-only effect; inactive = no such curve, though single readings can be large or run the other way. No potency is given beside an inconclusive call; the fits are too rough.
# Test: qHTS Assay for Rab9 Promoter Activators; also: nearly all actives have a fitted effect of over 60% in size; as to activation, negative = inhibition: % of control where 0% means no effect
# Conditions: Huh7 Rab9 promoter-luciferase reporter, luminescence, 24 h; series mostly up to 9.22 µM; activation, negative = inhibition: at the top concentration
# Method in brief: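 Huh7 reporter line, Rab9 promoter upstream of luciferase. Compound exposure 24 h at 37 °C in reduced-serum medium with 10% FBS. Read-out: luminescence.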
# Potency is read from the fitted curve at half-maximal effect; tags tell the direction and shape of the fitted curve.
Compound,Potency,"activation, negative = inhibition"
Cc1cc(C(=O)Nc2ccccc2)oc(=O)c1,"inconclusive [activator, partial curve]",–
Oc1ccc(-c2csc(-c3c[nH]c4ccccc34)n2)c(O)c1,"inconclusive [activator, single point]",–
O=C(ONc1ccc(N=NC(=O)c2ccccc2O)cc1)c1ccccc1,active: 3.98 µM,–
Cc1nn(C(C)C(=O)NCC2CCCO2)c(C)c1[N+](=O)[O-] (stereo not given),–,inactive: 3.71%
O=S(=O)(Nc1ccc(-n2cnnn2)cc1)c1cccc(Cl)c1,–,inactive: 1.05%
Cn1c(SCC(=O)c2ccc(F)cc2)nnc1-c1cnccn1,"inconclusive [activator, partial curve]",–
Cc1csc(=O)n1CC(=O)Nc1ccc(C(C)C)cc1,"inconclusive [activator, partial curve]",–
Cc1ccc(C(C(=O)NC(C)(C)C)N(Cc2cccnc2)C(=O)C(=O)NC2CCCCC2)o1 (stereo not given),–,inactive: 15.2%
CCOC(=O)C1C(O)=CC(=O)CC1c1ccccc1 (stereo not given),–,inactive: -2.6%
COCCCNC(=O)CCS(=O)(=O)Cc1ccc(C)cc1,–,inactive: -1.04%
COc1ccccc1C(=O)Nc1ccc2c3c(cccc13)CC2,"inconclusive [activator, single point]",–
COc1cccc(CNC(=O)Cn2nc(C)c([N+](=O)[O-])c2C)c1,–,inactive: 5.37%
COCCCn1c(SCC(=O)NC2CCCC2)nnc1-c1cccs1,–,inactive: -1.56%
Cc1ccc(CN2CCC(=O)N2)cc1,–,inactive: -4.87%
Cc1ccc(CSc2ncnc3c2cnn3-c2ccc(C)cc2)cc1,"inconclusive [activator, partial curve]",–
CSc1ccc(-c2nc(CN(C)C3CCOC3)c(C)o2)cc1 (stereo not given),"inconclusive [activator, single point]",–
COc1ccc(-n2cnc3cc(NCc4ccco4)ccc32)cc1,"inconclusive [activator, partial curve]",–
C=C(C)CSc1nnc(-c2ccc(C)cc2)n1N,"inconclusive [activator, single point]",–
COc1ccc(-c2nnc(SCc3ccccc3F)o2)cc1OC,"inconclusive [activator, single point]",–
CCn1c(NC(=O)c2ccccc2)nc2ccccc21,"inconclusive [activator, single point]",–
COc1ccc(C(=O)/C=C/c2ccc(OC)cc2OC)c(O)c1,"inconclusive [activator, single point]",–
O=C(O)c1cccc(-n2cccc2/C=C2/NC(=O)N(c3cccc(Cl)c3)C2=O)c1,–,inactive: -4.54%
CC(NC(=O)COc1ccc(N(C)S(=O)(=O)c2ccccc2)cc1)c1ccccc1 (stereo not given),–,inactive: -2.57%
CCOC(=O)c1[nH]c(C)c(C(=O)N(C)Cc2ccccc2)c1C,"inconclusive [activator, single point]",–
COc1ccccc1C1N=C(c2ccccc2C)NO1 (stereo not given),"inconclusive [activator, partial curve]",–
CCn1c(SCC(=O)Nc2ccc(C(C)=O)cc2)nc2nc3c(cc2c1=O)CCCC3,–,inactive: 20.6%
CSc1ncc(C(=O)Nc2ccc(C(C)=O)cc2)c(C)n1,"inconclusive [activator, partial curve]",–

Compound,Potency,"activation, negative = inhibition"
CN(C)C(=O)CSc1nnc(C23CC4CC(CC(C4)C2)C3)o1,active: 3.16 µM,–
Cc1ccc(CNC(=O)Nc2cccc(C)c2)cc1,active: 2.82 µM,–
NS(=O)(=O)c1ccc2nc(NC(=O)c3ccc(Br)o3)sc2c1,"inconclusive [activator, partial curve]",–
CCOC(=O)c1c(-c2ccccc2)nc2cc(C)ccn12,"inconclusive [activator, partial curve]",–
On1c2c(c3c4nonc4ccc31)CCCC2,–,inactive: 0.171%
CCNC(=S)/N=C(\N)Nc1nc(C)c2cc(C)ccc2n1,active: 2.82 µM,–
Cc1ccc(-c2ccc(SCC(=O)c3ccccc3)nn2)cc1,"inconclusive [activator, partial curve]",–
Cc1ccc(CCNC(=O)C2CCC(=O)N(Cc3ccccc3F)C2)o1 (stereo not given),"inconclusive [activator, single point]",–
O=C(COC(=O)c1cc[n+]([O-])cc1)Nc1ccc(SC(F)F)cc1,"inconclusive [activator, single point]",–
C(=C\n1nnc2ccccc21)/c1ccc[nH]1,"inconclusive [activator, single point]",–
O=C(c1ccc(Cn2c(=O)[nH]c3ccccc3c2=O)cc1)N1CCN(c2ccc(Cl)cc2)CC1,–,inactive: -9.4%
O=C(Nc1nc2c(s1)CCCC2)C1COc2ccccc2O1 (stereo not given),active: 0.316 µM,–
O=C(Nc1nc2ccccc2[nH]1)c1cc(F)cc(F)c1,active: 0.631 µM,–
O=C(NNC(=S)NCc1ccc(Cl)cc1)c1ccc2c(c1)OCO2,–,inactive: -11.5%
O=C(NCCc1ccccc1)c1ccc(-n2cnnn2)cc1,"inconclusive [activator, single point]",–
CN(C(=O)Nc1ccc(C(C)(C)C)cc1)C1CCCCC1,"inconclusive [activator, partial curve]",–
CCC1Oc2ccccc2C(=O)N(CC(=O)c2ccc3c(c2)OCCO3)C1=O (stereo not given),"inconclusive [activator, single point]",–
CC(=O)Nc1ccc(/C=N/N2CCCCC2)cc1,active: 4.47 µM,–
C/C(=N/NC(=O)c1ccco1)c1ccc(NC(=O)c2ccc(F)cc2)cc1,"inconclusive [activator, partial curve]",–
COc1ccc(Cn2c(CCC(=O)NCCC(C)C)nc3ncccc3c2=O)cc1,–,inactive: -2.23%
Cc1ccc(Nc2nc(CSc3nnnn3C)cs2)cc1,active: 2.82 µM,–
Cc1ccc(C(=O)NNC(=O)c2ccco2)cc1,"inconclusive [activator, single point]",–
COc1ccc(Nc2cc(Cl)nc(N)n2)cc1,–,inactive: 27.7%
Cc1ccc(NC(=O)COC(=O)/C(=C/c2cccs2)c2cccs2)cc1S(=O)(=O)N(C)C,–,inactive: -0.571%
Cc1cccc(-n2c(C)cc(/C=N/O)c2C)c1,–,inactive: -1.79%
COc1ccc(S(=O)(=O)N2CCOC2CNC(=O)C(=O)NCCc2ccc(S(N)(=O)=O)cc2)cc1 (stereo not given),"inconclusive [activator, single point]",–
COc1ccc(Cc2nc(-c3cccs3)no2)cc1OC,–,inactive: -6.16%

Compound,Potency,"activation, negative = inhibition"
Cc1ccc(C#N)c(SCC(=O)Nc2nccs2)n1,active: 0.447 µM,–
CCC(=O)Nc1cccc(NC(=O)c2ccc(C)cc2Cl)c1,"inconclusive [activator, single point]",–
CC(=O)c1sc2nc(-c3cccs3)ccc2c1N,active: 3.55 µM,–
CCS(=O)(=O)NCCc1csc(-c2ccccc2)n1,"inconclusive [activator, partial curve]",–
N#Cc1cnc(Nc2nc3ccccc3o2)nc1-c1ccccc1,"inconclusive [activator, single point]",–
Cn1ccnc1SCC(=O)c1c[nH]c2ccccc12,active: 3.55 µM,–
COc1ccc(C2=NN(C(C#N)c3ccc(OC)c(OC)c3)C(c3ccccc3)C2)cc1 (stereo not given),"inconclusive [activator, single point]",–
COc1cc(NC(=O)c2cccc(F)c2)cc(OC)c1OC,–,inactive: -6.98%
O=C(NNC(=S)Nc1ccc(Br)cc1)c1ccccc1,"inconclusive [activator, partial curve]",–
O=C(CCS(=O)(=O)c1ccc(Br)s1)Nc1ccccc1Br,"inconclusive [activator, single point]",–
COc1ccc(-c2cc3ccc(O)cc3oc2=O)cc1,active: 3.16 µM,–
C=CCSc1ncc(C(=O)OCC)c(N)n1,"inconclusive [activator, partial curve]",–
COC(=O)c1sccc1N/N=C/c1ccc(OC)c(OC)c1OC,"inconclusive [activator, single point]",–
Cc1ccc(Cl)c(OCC(=O)Nc2ccccc2N2CCCCC2)c1,–,inactive: 0.0038%
CCCCn1nc(C(=O)Nc2cc(C(F)(F)F)ccc2N2CCOCC2)ccc1=O,–,inactive: -8.69%
COC(=O)c1ccc(-c2ccc(F)cc2)nc1C,active: 3.55 µM,–
CCN1CCN(c2ccc(NC(=O)c3ccco3)cc2Cl)CC1,"inconclusive [activator, partial curve]",–
Cc1ccc(C(=O)/C=C/Nc2ccc3c(c2)OCO3)cc1,active: 0.708 µM,–
CCSc1nnc(NC(=O)c2cccs2)s1,"inconclusive [activator, partial curve]",–
Cc1ccc(C)c(C(=O)CCC(=O)N2CCN(c3ncccn3)CC2)c1,"inconclusive [activator, partial curve]",–
C=CCSc1nnc2c(n1)[nH]c1c(C)cccc12,"inconclusive [activator, partial curve]",–
O=C(NC(=S)Nc1ccc2[nH]ncc2c1)c1ccccc1,"inconclusive [activator, partial curve]",–
Cc1ccc(/C=C/C(=O)CCC(=O)O)cc1,"inconclusive [activator, partial curve, poor fit]",–
O=C(CC(=O)c1cc(Cl)ccc1O)c1ccccc1,"inconclusive [activator, partial curve]",–
COc1ccc(C(=O)Cc2cnn(-c3ccccc3)c2)c(O)c1,active: 3.16 µM,–
Cc1ccc(-c2noc(/C=C/c3ccccc3)n2)cc1,"inconclusive [activator, single point]",–

# — PubChem BioAssay AID485297 (National Center for Advancing Translational Sciences (NCATS), 2010)
